PubChem BioAssay AID686970 (National Center for Advancing Translational Sciences (NCATS), 2013)
Hit rate of the full screen: of about 360,000 compounds, about 6,000 (1.7%) were called active. The shares of active, inactive and inconclusive entries below differ from those in the screen. The call rests on the fitted dose curve; in most records, active means well fitted cell-killing curve with a large enough effect; inconclusive means small, poorly fitted or top-dose-only effect, or effect the other way; inactive means flat fitted curve, though single readings scatter. Potencies of inconclusive entries are left out as doubtful fits.

Assay: qHTS for induction of synthetic lethality in tumor cells producing 2HG: qHTS for the HT-1080-NT fibrosarcoma cell line;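 further: NT is the 2HG producing partner of a matched IDH1 knockdown line; nearly all actives have a fitted effect of over 55% in size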;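 on activity, negative = less viability: 0% = DMSO-treated cells and -100% = media-only wells without cells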
Details: HT-1080-NT fibrosarcoma viability, CellTiter-Glo ATP luminescence, 48 h; activity, negative = less viability: at 46.1 µM (top of the series) unless noted
In short: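 Luminescent CellTiter-Glo readout after 48 hours of compound exposure at 37 degrees C defined viability of HT-1080-NT cells. Activity was normalized to DMSO wells and cell-free media wells; concentration-response curves were fitted and assigned curve classes.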
Potency means the concentration at half of the fitted maximal effect; tags describe the fitted curve by direction and shape.

Compound | activity, negative = less viability | Potency
COc1ccc(CNS(=O)(=O)c2cc(CN3C(=O)c4cccnc4C3=O)ccc2OC)cc1 | inactive: -1.82% | –
COCc1nnc(NC(=O)CCS(=O)(=O)c2ccccc2)s1 | – | inconclusive [cytotoxic, single point]
Clc1cccc(-c2nc(NCCN3CCOCC3)c3ccccc3n2)c1 | – | inconclusive [cytotoxic, single point]
Cn1c(-c2ccc3c(c2)OCO3)cnc1NCc1cccc(Cl)c1 | – | inconclusive [cytotoxic, single point]
COc1ccc(-c2csc(Nc3ccc(O)cc3)n2)cc1 | – | inconclusive [cytotoxic, partial curve]
CCCCn1nnnc1-c1nc2ccccc2[nH]c1=O | – | inconclusive [cytotoxic, single point]
CC(OC(=O)c1cc(S(=O)(=O)N2CCOCC2)ccc1F)C(=O)NCC1CCCCC1 (centres undefined) | inactive: -2.3% | –
O=C(/C=C/c1cccc(C(F)(F)F)c1)Nc1cccc(C(F)(F)F)c1 | – | active: 11.2 µM
CC1CCC2(CC1)NC(=O)N(CC(=O)N1CCN(C(=O)c3ccco3)CC1)C2=O (centres undefined) | inactive: -19.2% [at 9.24 µM] | –
CC1(C)CC(=O)c2cc(OCC(=O)NCCCN3CCN(c4ccc(F)cc4)CC3)ccc2O1 | – | inconclusive [cytotoxic, single point]
O=c1[nH]cnc(O)c1N=Nc1ccccc1 | – | inconclusive [rising, full curve, poor fit]
Cc1ccc2oc(=O)c3cc(C(=O)NCCCN4CCc5ccccc5C4)sc3c2c1 | inactive: 0% | –
Cc1ccc(-c2ccc3c(c2)O[C@H](CN(C)C(=O)Nc2ccc(C(F)(F)F)cc2)[C@H](C)CN([C@H](C)CO)S3(=O)=O)cc1 | – | inconclusive [cytotoxic, single point]
CCOC(=O)c1c(-c2ccc(C)o2)csc1NC(=O)CSc1nncs1 | – | inconclusive [cytotoxic, single point]
CC(=NNC(=O)c1cc(C)nc2ccccc12)c1ccc(N2CCOCC2)cc1 | – | inconclusive [cytotoxic, partial curve]
Clc1ccc(OCc2nn3c(C4CCCCC4)nnc3s2)cc1 | – | inconclusive [cytotoxic, single point]
CC(C)c1ccc(OCC(O)CN2CCN(c3ccccc3)CC2)cc1 (centres undefined) | – | inconclusive [cytotoxic, single point]
COc1ccccc1-c1csc(C(NC(C)=O)c2cccc(F)c2)n1 (centres undefined) | inactive: 1.46% | –
Cn1ccnc1SCC(=O)c1cccc(C(F)(F)F)c1 | inactive: 0.466% | –
CCC(=O)Nc1ccc(C(=O)Nc2ccc(OC)cc2[N+](=O)[O-])cc1 | – | inconclusive [cytotoxic, single point]
COC(=O)/C=C/c1sc2nc(C)cc(C)c2c1N=CN(C)C | inactive: -7.08% | –
COc1ccc(C(=O)NC(=S)NNC(=O)Cc2cccs2)cc1 | – | inconclusive [cytotoxic, partial curve]

Compound | activity, negative = less viability | Potency
CCOC(=O)c1c(C)n(CC)c2c1cc(O)c1ccccc12 | – | inconclusive [rising, partial curve, poor fit]
O=C(NC1CC1)c1ccc2nc([C@@H]3O[C@H](CO)[C@H](O)[C@H](O)[C@H]3O)[nH]c2c1 | inactive: 4.22% | –
Cc1cc(N2CCN(c3nc4ccccc4s3)CC2)n2ncnc2n1 | – | inconclusive [cytotoxic, partial curve]
O=C(Nc1ccccc1)C(=O)Nc1ccc2c(c1)N(C(=O)C1CC1)CCC2 | – | inconclusive [cytotoxic, single point]
O=C1c2ccccc2C(Nc2ccc(S(=O)(=O)N3CCOCC3)cc2)N1c1cccnc1 (centres undefined) | inactive: 0% | –
Fc1ccc(CNC(=S)NCc2cccc(Cl)c2)cc1 | – | inconclusive [cytotoxic, single point]
COc1ccc(S(=O)(=O)Nc2ccc(Cc3ccncc3)cc2)cc1C | – | inconclusive [cytotoxic, partial curve, poor fit]
Cn1nc([N+](=O)[O-])c2c(-c3nc4ccccc4s3)c(N)n(C3CCCCC3)c2c1=O | – | inconclusive [rising, single point]
S=c1nc(C2CCCCC2)[nH][nH]1 | – | active: 11.2 µM
Cc1ccc(S(=O)(=O)c2nc(S(=O)(=O)c3ccc(C)cc3)c(N3CCN(CCO)CC3)s2)cc1 | – | inconclusive [cytotoxic, single point]
CCC(=O)N1CCc2cc(S(=O)(=O)CCC(=O)N3CCN(c4ccc(Cl)cc4)CC3)ccc21 | inactive: -15% | –
COc1cc(SC)ccc1C(=O)N1CCCc2ccccc21 | – | inconclusive [cytotoxic, single point]
COc1cc(-c2nc3ccc4ccccc4c3c3c2CCC3)ccc1O | – | inconclusive [cytotoxic, single point]
COc1ccc(Br)cc1/C=N/NC(=O)CNC(=O)/C=C/c1ccccc1 | – | inconclusive [cytotoxic, single point]
CC1CC(=Cc2ccc(N)cc2)C(=O)O1 (centres undefined) | inactive: 4.68% | –
O=C(CSc1nc2c(sc3ccccc32)c(=O)n1CCCN1CCCC1)NCc1ccccc1 | – | inconclusive [cytotoxic, partial curve]
CCN(c1ccccc1)S(=O)(=O)c1cc(NC(=O)CSc2n[nH]c(=O)[nH]c2=O)ccc1Cl | inactive: -2.43% | –
COc1ccc(Nc2nnc(-c3ccc(O)cc3)c3ccccc23)cc1 | – | inconclusive [cytotoxic, single point]
CC1(Cc2ccc(F)cc2)C(=O)Nc2c(Cl)ccc(Cl)c21 (centres undefined) | inconclusive: -46.8% | –
OC[C@@H]1CN(Cc2ccc(-c3ccccc3)cc2)C[C@H](n2cnc3c(N4CCCC4)ncnc32)O1 | – | inconclusive [cytotoxic, single point]
Cc1cc(NCCN2CCOCC2)n2nc(C)c(-c3ccc(Cl)cc3)c2n1 | – | active: 23.1 µM
CCN1CCN(Cc2ccc(NC(=O)c3cc(NC(=O)c4cc(-c5ccc(OC)cc5)n[nH]4)cc(OC)c3)cc2C(F)(F)F)CC1 | – | inconclusive [cytotoxic, single point]
